Test results from US12286632B2, “Rationally-designed synthetic peptide shuttle agents for delivering polypeptide cargos from an extracellular space to the cytosol and/or nucleus of a target eukaryotic cell, uses thereof, methods and kits relating to same” (Feldan Bio Inc., priority 2016, dated 2025).
At least one peptide structure holds a part that was inferred or is arguable (an end, a ring closure or a residue). Some compounds share one wording; it may come from a single statement. Ends that are not written are not given here. Peptide text beside a SMILES is read from it.

Assays:
[1] = system: HeLa cells; assay: GFP-NLS protein transduction assay (flow cytometry: Pos cells %, viability %, relative fluorescence intensity; microscopy); conditions: for Mean % cells with GFP signal (±St Dev.; n = 3): Table B3
[2] = system: HeLa cells; assay: Plasmid DNA (pEGFP-C1) transfection by peptides (% cells with GFP signal, cell viability); conditions: DNA transfection in HeLa cells using peptides
[3] = Table 10.4, Protocol B, HeLa, peptide 50 μM, GFP-NLS 5 μM, 10 seconds
[4] = peptide 50 μM, GFP-NLS 5 μM, 10 seconds, Protocol B
[5] = Table C3, HeLa cells, GFP-NLS 10 μM, 10 μM of the peptide, 1 min
[6] = Table B2, HeLa cells, GFP-NLS cargo

CC(C)C[C@H](NC(=O)[C@H](CC(C)C)NC(=O)[C@H](CCCCN)NC(=O)[C@H](CCCCN)NC(=O)[C@H](CC(C)C)NC(=O)[C@H](CC(C)C)NC(=O)[C@H](CCCCN)NC(=O)[C@H](CCCCN)NC(=O)[C@H](CC(C)C)NC(=O)[C@H](CC(C)C)NC(=O)[C@@H](N)CS)C(=O)N[C@@H](CCCCN)C(=O)N[C@@H](CCCCN)C(=O)N[C@@H](CS)C(=O)O [C(LLKK)3C, reference compound] (H-CLLKKLLKKLLKKC-OH)
Mean % cells with GFP signal (±St. Dev.; n = 3) [1, 3]: 1.1 ± 0.57% | GFP-NLS transduction (flow cytometry, in words) [1, 4]: not able to successfully transduce GFP-NLS

CC[C@H](C)[C@H](N)C(=O)N[C@H](C(=O)N[C@@H](CCCNC(=N)N)C(=O)N[C@@H](Cc1c[nH]cn1)C(=O)N[C@@H](CCC(=O)O)C(=O)N[C@@H](Cc1c[nH]cn1)C(=O)N[C@@H](CS)C(=O)N[C@@H](CCSC)C(=O)N[C@H](C(=O)N[C@@H](Cc1c[nH]cn1)C(=O)N[C@@H](CC(C)C)C(=O)N[C@@H](Cc1c[nH]c2ccccc12)C(=O)N[C@@H](Cc1ccc(O)cc1)C(=O)N[C@@H](CCCCN)C(=O)N[C@@H](CC(N)=O)C(=O)N[C@@H](CC(C)C)C(=O)N[C@@H](C)C(=O)N[C@@H](CCCCN)C(=O)N[C@@H](Cc1ccc(O)cc1)C(=O)N[C@@H](CS)C(=O)N[C@@H](CO)C(=O)N[C@H](C(=O)N[C@@H](CO)C(=O)N[C@@H](Cc1c[nH]cn1)C(=O)N[C@@H](C)C(=O)N[C@@H](CCCNC(=N)N)C(=O)N[C@@H](CCCNC(=N)N)C(=O)N[C@@H](CC(C)C)C(=O)N[C@@H](C)C(=O)N[C@@H](CCCNC(=N)N)C(=O)N[C@@H](CCCNC(=N)N)C(=O)N[C@@H](CCCNC(=N)N)C(=O)N[C@@H](C)C(=O)N[C@@H](Cc1c[nH]cn1)C(=O)N[C@@H](Cc1c[nH]cn1)C(=O)O)[C@@H](C)O)[C@@H](C)CC)C(C)C [FSD32] (H-IVRHEHCMIHLWYKNLAKYCSTSHARRLARRRAHH-OH)
Mean % cells with GFP signal (±St. Dev.; n = 3) [2]: 0.08 ± 0.02% | Mean % cells with GFP signal (±St. Dev.; n = 3) [1, 5]: 3.12 ± 1.03%

CC[C@H](C)[C@H](NC(=O)[C@H](Cc1c[nH]cn1)NC(=O)[C@@H](NC(=O)[C@H](CC(C)C)NC(=O)[C@H](CS)NC(=O)[C@H](Cc1c[nH]cn1)NC(=O)[C@H](Cc1c[nH]cn1)NC(=O)[C@H](Cc1c[nH]cn1)NC(=O)[C@H](Cc1c[nH]cn1)NC(=O)[C@H](Cc1c[nH]cn1)NC(=O)[C@@H](N)Cc1c[nH]cn1)[C@@H](C)CC)C(=O)N[C@@H](Cc1c[nH]c2ccccc12)C(=O)N[C@@H](CCC(=O)O)C(=O)N[C@@H](C)C(=O)N[C@@H](CCCCN)C(=O)N[C@@H](CC(C)C)C(=O)N[C@@H](C)C(=O)N[C@@H](CCCCN)C(=O)N[C@@H](CCCCN)C(=O)N[C@@H](CS)C(=O)NCC(=O)NCC(=O)NCC(=O)NCC(=O)N[C@@H](Cc1ccc(O)cc1)C(=O)N[C@@H](C)C(=O)N[C@@H](CCCNC(=N)N)C(=O)N[C@@H](C)C(=O)N[C@@H](C)C(=O)N[C@@H](C)C(=O)N[C@@H](CCCNC(=N)N)C(=O)N[C@@H](CCC(N)=O)C(=O)N[C@@H](C)C(=O)N[C@@H](CCCNC(=N)N)C(=O)N[C@@H](C)C(=O)O [FSD36] (H-HHHHHHCLIHIWEAKLAKKCGGGGYARAAARQARA-OH)
Mean % cells with GFP signal (±St. Dev.; n = 3) [2]: 0.01 ± 0.00% | Mean % cells with GFP signal (±St. Dev.; n = 3) [1, 5]: 0.35 ± 0.2%

CC(C)C[C@H](NC(=O)[C@H](C)NC(=O)[C@H](CCCCN)NC(=O)[C@H](C)NC(=O)[C@H](CC(C)C)NC(=O)[C@H](CCCCN)NC(=O)[C@H](C)NC(=O)[C@H](CCC(=O)O)NC(=O)[C@H](Cc1c[nH]c2ccccc12)NC(=O)CNC(=O)[C@@H](NC(=O)[C@@H]1CCCN1C(=O)[C@H](CCCNC(=N)N)NC(=O)[C@H](CC(C)C)NC(=O)[C@H](CS)NC(=O)[C@@H](N)CC(C)C)C(C)C)C(=O)N[C@@H](C)C(=O)N[C@@H](CCCCN)C(=O)N[C@@H](C)C(=O)N[C@@H](CC(C)C)C(=O)N[C@@H](C)C(=O)N[C@@H](CCCCN)C(=O)N[C@@H](Cc1c[nH]cn1)C(=O)N[C@@H](CC(C)C)C(=O)N[C@@H](C)C(=O)N[C@@H](CCCCN)C(=O)N[C@@H](C)C(=O)N[C@@H](CC(C)C)C(=O)N[C@@H](C)C(=O)N[C@@H](CCCCN)C(=O)N[C@@H](C)C(=O)N[C@@H](CC(C)C)C(=O)N[C@@H](CCCCN)C(=O)N[C@@H](C)C(=O)N[C@@H](CS)C(=O)N[C@@H](CCC(=O)O)C(=O)N[C@@H](C)C(=O)O [Xentry-KALA] (H-LCLRPVGWEAKLAKALAKALAKHLAKALAKALKACEA-OH)
Mean % cells with GFP signal (±St. Dev.; n = 3) [2]: 0.1 ± 0.02%

ALLGLFIKWVKKVGTLFRKAKAGAQNRRAKAQKGK [FSD26]
Mean % cells with GFP signal (±St. Dev.; n = 3) [2]: 0.02 ± 0.00% | Mean % cells with GFP signal (±St. Dev.; n = 3) [1, 6]: 47.63 ± 4.19%

GHHHHHHHLIHIWEAKLAKLAKALARAAARQARAK [FSD38]
Mean % cells with GFP signal (±St. Dev.; n = 3) [2]: 0.02 ± 0.00% | Mean % cells with GFP signal (±St. Dev.; n = 3) [1, 5]: 4.61 ± 1.33%

HHHHAAVLKLWKRLLKLFRKGRRLKAKRAKAKR [FSD20]
Mean % cells with GFP signal (±St. Dev.; n = 3) [2]: 0.04 ± 0.00% | Mean % cells with GFP signal (±St. Dev.; n = 3) [1, 6]: 75.23 ± 5.91%

HHHHHHCLLKKWEAKLAKKIGGGGRQARAKALAKA [FSD30]
Mean % cells with GFP signal (±St. Dev.; n = 3) [2]: 0.02 ± 0.00% | Mean % cells with GFP signal (±St. Dev.; n = 3) [1, 5]: 1.75 ± 1.14%

HHHHHHFRKLWLAIVRAKK [FSN8]
Mean % cells with GFP signal (±St Dev.; n = 3) ([1]; HeLa cells, GFP-NLS cargo): 3.52 ± 0.41%

HHHHHHHHRQRRRWEARGFLGGGGYARAARQARAA [FSD39]
Mean % cells with GFP signal (±St. Dev.; n = 3) [2]: 0.00 ± 0.00% | Mean % cells with GFP signal (±St. Dev.; n = 3) [1, 5]: 0.23 ± 0.09%

HHHHHHHHRQRRRWEARGGFLGGGGYARAARQARA [FSD33]
Mean % cells with GFP signal (±St. Dev.; n = 3) [2]: 0.15 ± 0.01% | Mean % cells with GFP signal (±St. Dev.; n = 3) [1, 5]: 0.68 ± 0.45%

HHHHHHKKALLALALHHLAHLALHLALALKKAYARAAARQARA [His--PTD4]
Mean % cells with GFP signal (±St. Dev.; n = 3) ([1]; Table 10.1, Protocol B, HeLa, shuttle 50 μM, GFP-NLS 5 μM, 10 seconds): 63 ± 1.64%

HHHHHHKRKKKRRAKKKRAWLYLALLLWALALHHHHHH [FSD3]
Mean % cells with GFP signal (±St. Dev.; n = 3) [1, 6]: 2.45 ± 0.32%

HHHHHHKRQLKRKLRKWKRLLRLLRLLARLWLHHHHHH [FSD4]
Mean % cells with GFP signal (±St. Dev.; n = 3) [1, 6]: 6.60 ± 0.84%

HHHHHHKWAKLLRAFAKAIKKLYARLARRQARTGHHHHHH [FSD13]
Mean % cells with GFP signal (±St. Dev.; n = 3) [1, 6]: 75.94 ± 7.48%

HHHHHHKWKLLRRAAKKAARRYLKLLLKQLKLHHHHHH [FSD1]
Mean % cells with GFP signal (±St. Dev.; n = 3) [1, 6]: 37.6 ± 3.44%

HHHHHHLAKLFKWLRALIRQGAKRKTKRASAHHHHHH [FSD17]
Mean % cells with GFP signal (±St. Dev.; n = 3) [1, 6]: 52.83 ± 6.69%

HHHHHHLALARWARYFRILAKLKRTKRGQAKAHHHHHH [FSD14]
Mean % cells with GFP signal (±St. Dev.; n = 3) [1, 6]: 43.25 ± 5.35%

HHHHHHLLKLWRRLLKLFRKALRALAKRAKSALKRAQAA [FSN5]
Mean % cells with GFP signal (±St Dev.; n = 3) ([1]; HeLa cells, GFP-NLS cargo): 13.29 ± 1.24%

HHHHHHVWKLFWTLLAAIYGRGKARQKRAKRQARG [Peptide F5D25]
Mean % cells with GFP signal (±St. Dev.; n = 3) [2]: 0.31 ± 0.02%

HHHHHHWYLALLALYWQRAKAKTRQRRRHHHHHH [FSD6]
Mean % cells with GFP signal (±St. Dev.; n = 3) [1, 6]: 1 ± 0.12% | GFP-NLS transduction efficiency (in words) ([1]; peptide 10 μM, GFP-NLS 10 μM, 1 min): nearly a complete loss transduction efficiency

HHHHHHYARAAARQARA [His-PTD4, reference compound]
Mean % cells with GFP signal (±St. Dev.; n = 3) [1, 3]: 1.04 ± 0.12% | GFP-NLS transduction (flow cytometry, in words) [1, 4]: not able to successfully transduce GFP-NLS

HHHHHHYARAAARQARA [Peptide 6His-PTD4]
Mean % cells with GFP signal (±St. Dev.; n = 3) [2]: 0.01 ± 0.00%

KETWWETWWTEWSQPKKKRKVWEAKLAKALAKALAKHLAKALAKALKACEA [Pep1-KALA]
Mean % cells with GFP signal (±St. Dev.; n = 3) [2]: 0.31 ± 0.03%

LHHHSHHLIHIWLLFKLKLKKKKAARRARRARRHH [FSD29]
Mean % cells with GFP signal (±St. Dev.; n = 3) [1, 5]: 6.43 ± 2.6%

LIKLWSRFIKFWTQGRRIKAKLARAGQSWFG [FSN7]
Mean % cells with GFP signal (±St Dev.; n = 3) ([1]; HeLa cells, GFP-NLS cargo): 3.56 ± 0.36%

RLHHSHHLIHIWLLFKLKLKKKKRAARRARRHHHL [FSD37]
Mean % cells with GFP signal (±St. Dev.; n = 3) [1, 5]: 11.57 ± 2.99%
